Assay results from PubChem BioAssay AID743279 (National Center for Advancing Translational Sciences (NCATS), 2014).
The campaign covered roughly 360,000 compounds. About 17,000 (4.7%) were called active. The shares of active, inactive and inconclusive entries below differ from those in the screen. Cut-off read from the data, not from the text of the source: active = activity change below about -50%; inconclusive = mostly about -30% to -49%; inactive = weaker than that.
% is set by controls: 0 for no effect and ±100 for the full control effect.

Assay: qHTS for Inhibitors of Inflammasome Signaling: IL-1-beta AlphaLISA Primary Screen
Conditions: THP-1 LPS/ATP IL-1B secretion, 16 h; at 57.5 µM, active compounds read low
How it was run: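 THP-1 cells pretreated 1 hr with compounds (up to 57.5 uM final), then stimulated with LPS (250 ng/mL final) plus ATP (1.25 mM final); secreted IL-1B measured by AlphaLISA after 16 hr, decreased signal indicating inhibition.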
With `CCOC(=O)C(/C(C)=N/NC(=O)C1CC1c1ccccc1)C(C)C` (stereo not given) the activity change was inactive: -1.5%. In the case of `O=C(Nc1ccc(F)cc1)c1ccc(CSc2ccccc2)o1`, the activity change was inconclusive: -37%. In the case of `CS(=O)(=O)Nc1cccc(NC(=O)c2ccc(-c3ccc(F)c(F)c3)c3ccoc23)c1`, the activity change was inconclusive: -43.3%. With `Cn1c(=O)c(C(=O)NNC(=O)c2cccc(Cl)c2)c(O)c2ccccc21` the activity change was inconclusive: -49.3%. In the case of `COc1ccc(NC(=O)CSc2nnc3n2CCCCC3)cc1OC`, the activity change was inconclusive: -47.5%. For `Cc1cc([N+](=O)[O-])nn1CCCC(=O)Nc1cc(Oc2ccc(F)cc2)cc([N+](=O)[O-])c1`, the activity change was inconclusive: -35.2%. In the case of `COC(=O)N/N=C/c1cccs1`, the activity change was inactive: -9.71%. In the case of `O=C(CSc1nc2ccccc2nc1SCC(=O)N1CCCCC1)N1CCCCC1`, the activity change was active: -59.5%. In the case of `C=CCOc1cccc(C(=O)N2CCCC(Nc3ccc4c(c3)OCCO4)C2)c1` (stereo not given), the activity change was inactive: -2.53%. With `CCOC(=O)N(C)[C@H]1C[C@H]2c3[nH]c4ccccc4c3CCN2C[C@H]1[C@H](C)O` the activity change was inactive: 0%. For `COc1ccc(C(C(=O)NC2CCCC2)N(CCC(C)C)C(=O)CCC(=O)Nc2cc(C)on2)cc1` (stereo not given), the activity change was inconclusive: -33.6%. For `O=c1c(-c2cccnc2)nc2ccccc2n1C(CCc1ccccc1)c1nc2ccccc2[nH]1` (stereo not given), the activity change was inconclusive: -40%. In the case of `CCOc1ccc(-c2nc(C#N)c(N3CCOCC3)o2)cc1`, the activity change was inconclusive: -43.5%. In the case of `COC(=O)c1sccc1NC(=O)NC1CCCCC1`, the activity change was inconclusive: -41.8%. With `CCOc1ccccc1C(=O)N[C@H](C(=O)Nc1nc2c(s1)CCCC2)C(C)C` the activity change was inconclusive: -49.5%. In the case of `O=S(=O)(Nc1ccc(-c2nnc(SCc3ccc(Cl)cc3)o2)cc1)c1ccccc1`, the activity change was active: -78.7%. For `Cc1cccc(NC(=O)C2CCN(S(=O)(=O)c3ccc4ccccc4c3)CC2)n1`, the activity change was inconclusive: -30.7%. For `O=C1/C(=C\c2ccccc2)SC(=S)N1CCC(=O)N1CCCCC1CCO` (stereo not given), the activity change was inconclusive: -33.7%. With `CCOC(=O)[C@H]1[C@H]2COc3ccc(C)cc3[C@@H]2N2C(=O)CN(Cc3ccccc3)C(=O)[C@@]12C` the activity change was inconclusive: -30.7%. In the case of `CCc1ccc2nc3c(c(C(=O)O)c2c1)CCC3`, the activity change was inactive: 10.6%. In the case of `CCOC(=O)c1cc(-c2cc3ccccc3o2)nc2c1c(=O)[nH]c(=O)n2CCOC`, the activity change was inactive: 24.7%. With `O=C(/C=C/c1ccccc1Cl)NC1CCCCC1` the activity change was inconclusive: -33.3%. With `Cc1cc(C)nc(Nc2nc(C(N)Cc3ccc(Cl)cc3)cs2)n1` (stereo not given) the activity change was inconclusive: -32.1%. In the case of `CCCn1c(/C=C/c2cc[n+](C)cc2)nc2ccccc21`, the activity change was inactive: -8.3%. In the case of `CCCCCCCC[n+]1c(C)n(-c2ccccc2)c2ccc(NC(C)=O)cc21`, the activity change was active: -103%. For `COc1ccccc1-c1cc(C(=O)N/N=C/C=C/c2ccccc2[N+](=O)[O-])c2ccccc2n1`, the activity change was active: -50.8%. In the case of `O=C(CN(C(=O)c1ccccc1Cl)C1CCCCC1)Nc1ccc(Cl)c([N+](=O)[O-])c1`, the activity change was inconclusive: -35.6%. For `O=[N+]([O-])c1ccc2c(c1)-c1ccccc1C2O` (stereo not given), the activity change was inconclusive: -34.8%. For `NC1=NC(=Nc2cccc(S(N)(=O)=O)c2)c2ccccc21`, the activity change was inconclusive: -30.1%. In the case of `N=c1c(S(=O)(=O)c2ccccc2)cc2c(=O)n3ccccc3nc2n1C1CCCCC1`, the activity change was inconclusive: -43.7%. With `O=C(NCS(=O)(=O)c1ccccc1)c1ccccc1` the activity change was inconclusive: -31.6%. With `CCCCn1c(N)c(N(CCC(C)C)C(=O)C2CC(=O)N(c3ccccc3OCC)C2)c(=O)[nH]c1=O` (stereo not given) the activity change was “inactive”. With `Cc1nn2cnnc2c(C)c1Cc1ccc(Cl)cc1` the activity change was inactive: 0.764%. In the case of `CC(C)(C)NC(=O)NC(=O)C[n+]1ccc(Cc2ccc([N+](=O)[O-])cc2)cc1`, the activity change was inconclusive: -43.4%. For `COc1cc(Cl)ccc1NC(=S)N(CCCN1CCOCC1)Cc1cn(C)c2ccccc12`, the activity change was inconclusive: -42.9%. With `O=C(Nc1ccc(Cl)cc1)C(Cl)C(=O)c1ccccc1` (stereo not given) the activity change was inconclusive: -33.5%. In the case of `CCOc1ccc(NC(=S)N2CCC(C(=O)c3ccc(F)cc3)CC2)cc1`, the activity change was inconclusive: -50%. In the case of `O=c1c2cc(NC(=S)NC3CCCCC3)ccc2nc2n1CCCCC2`, the activity change was inconclusive: -31.2%. In the case of `O=C(N=Nc1c(O)n(Cc2ccccc2)c2ccccc12)c1ccc(O)cc1`, the activity change was inconclusive: -36.2%. With `O=C(CSc1nnc(-c2ccccc2)n1Cc1ccco1)Nc1ccc2c(c1)OCCO2` the activity change was inconclusive: -44.8%. In the case of `O=C(Nc1ccc(Oc2nnc(-c3ccccc3)c3ccccc23)cc1)c1ccccc1`, the activity change was active: -62.3%. In the case of `Cc1ccc(S(=O)(=O)NCc2ccccc2)cc1C(=O)N1CCCC(C(F)(F)F)C1` (stereo not given), the activity change was inactive: -12.5%. In the case of `CCc1ccc(N2CC(C(=O)N3CCN(c4ccccn4)CC3)CC2=O)cc1` (stereo not given), the activity change was inactive: -20.3%. For `CC1CCc2c(sc(NC(=O)c3ccc(-c4ccccc4[N+](=O)[O-])o3)c2C#N)C1` (stereo not given), the activity change was active: -63.1%. With `CCN(CC)CCNC(=O)c1cc2c(=O)n(CC)c3ccccc3c2s1` the activity change was active: -55.7%. For `COc1ccc(C(=O)O/N=C(\N)c2cccc(C)c2)cc1OC`, the activity change was inconclusive: -30.6%. With `c1ccc(Nc2nc(NCC3CCCO3)c3ccccc3n2)cc1` (stereo not given) the activity change was active: -101%. For `CCSc1nnc2n(-c3ccc(OC)cc3)c(=O)c3c4c(sc3n12)CCCC4`, the activity change was inconclusive: -47.6%. In the case of `Cc1cc(N/N=C/c2cccc(Cl)c2)nc(NCc2ccccc2)n1`, the activity change was active: -77.2%. In the case of `CCCCN(CCCNC(=O)C1CCN(S(=O)(=O)CC)CC1)c1ccccc1`, the activity change was inconclusive: -45.7%. In the case of `Cc1ccc(Nc2c(-c3ccc(N4CCOCC4)cc3)nc3ncccn23)cc1C`, the activity change was inconclusive: -44.3%. With `CN(C)CCCN1c2ccccc2Sc2ccccc21` the activity change was inconclusive: -32.9%. In the case of `Cc1ccc(S(=O)(=O)N2C[C@@]3(O)Cn4c(=O)ccc(=O)n4C[C@@]3(OC(=O)NCC3CCCCC3)C2)cc1`, the activity change was inconclusive: -45.4%. For `CCCN(CCC)CCCNC(=O)c1cn(CC)c2ccc(S(=O)(=O)N3CCc4ccccc4C3)cc2c1=O`, the activity change was active: -103%. In the case of `CC(C)c1ccc(N(CC(=O)Nc2ccc(S(=O)(=O)N3CCOCC3)cc2)S(C)(=O)=O)cc1`, the activity change was inconclusive: -36.4%. For `CCOc1cccc(C(=O)NC(=S)Nc2ccc3c(c2)OCCO3)c1`, the activity change was active: -53.6%. With `COc1ccc(CCNC(C(=O)Nc2cc(C)cc(C)c2)c2ccccc2)cc1` (stereo not given) the activity change was inconclusive: -45.6%. With `COc1ccc(CNC(=O)CSc2nc3ccc(C)cc3[nH]2)cc1OC` the activity change was inactive: 12.8%. In the case of `Cc1ccc(-c2ccc3nnc(SCC(=O)NCC4CCCO4)n3n2)cc1` (stereo not given), the activity change was inconclusive: -36.6%. In the case of `O=C(CC1SC(=Nc2ccc3c(c2)OCCO3)NC1=O)Nc1ccc(F)cc1F` (stereo not given), the activity change was inconclusive: -30.2%. In the case of `CC(=NNC(=O)c1ccccc1N)c1ccccc1O`, the activity change was inactive: 128%. In the case of `CCOc1ccc(N2C(=O)C3CCCN3C2=O)cc1` (stereo not given), the activity change was inactive: 1.89%. In the case of `CN(CC(=O)NCc1ccc(F)cc1)S(=O)(=O)c1ccc(Br)s1`, the activity change was inactive: -3.48%. With `C/C(=N\NC(=O)c1ccoc1C)c1ccc(Cl)s1` the activity change was inconclusive: -43%. In the case of `COC(=O)C1=C(C)N(Cc2ccccc2)C(=NCc2ccccc2)N[C@H]1c1cccc(C(F)(F)F)c1`, the activity change was inconclusive: -46.2%. For `Cc1ccc(N2CCN(C(=O)CNS(=O)(=O)c3ccc(Br)s3)CC2C)cc1` (stereo not given), the activity change was inconclusive: -42.6%. In the case of `CCCCCCCNC(=O)C1(CC2CC(c3cccc(Br)c3)=NO2)CCN(C(=O)Cc2ccc(F)cc2)CC1` (stereo not given), the activity change was active: -58.7%. In the case of `O=C(c1ccc2c(c1)OCO2)C1CCCN(Cc2c(F)ccc(F)c2F)C1` (stereo not given), the activity change was inactive: -12.8%. With `COc1ccc(N2CCN(CCCNC(=O)c3cc4sccc4n3C)CC2)cc1` the activity change was inconclusive: -46.1%. In the case of `O=C(Nc1ccc2oc(-c3ccccc3)nc2c1)c1ccco1`, the activity change was inactive: 5.85%. In the case of `Cc1ccccc1CNC(=O)CC1C(=O)NCCN1CC1CCCCC1` (stereo not given), the activity change was inconclusive: -42.4%. In the case of `COc1ccc(N2CCN(CC(=O)NC(C)c3ccccc3)CC2)cc1` (stereo not given), the activity change was inactive: -12.3%. For `Cc1ccc(C2CC(c3cccs3)=NN2C(=O)CSc2nc3ccccc3o2)cc1` (stereo not given), the activity change was inconclusive: -34%. In the case of `COc1cc(OC)c(C(=O)Nc2cc(S(=O)(=O)N3CCOCC3)ccc2N2CCOCC2)cc1OC`, the activity change was inconclusive: -42.7%. In the case of `O=C(Cn1cc[n+](CC(=O)c2ccccc2)c1)c1ccccc1`, the activity change was inactive: -20.6%. For `COC(=O)CSC1=C(C#N)C(=O)NC(c2ccccc2)S1` (stereo not given), the activity change was inconclusive: -31.1%. In the case of `Cc1cc(C)c[n+](C2=C([O-])c3ccccc3C(=O)/C2=N\S(=O)(=O)c2cccs2)c1`, the activity change was inactive: 0%. For `Oc1ccc(-c2csc(Nc3ncccn3)n2)cc1`, the activity change was inconclusive: -49.6%. With `CC(OC(=O)/C(C#N)=C/c1ccc(N(C)C)cc1)C(=O)N(C)c1ccccc1` (stereo not given) the activity change was inconclusive: -31.6%. For `COc1ccc(S(=O)(=O)/N=C2\C=C(Nc3ccc(O)cc3)C(=O)c3ccccc32)cc1`, the activity change was active: -96.2%. For `O=C(Nc1nc2n(n1)C(c1ccc(Cl)cc1)CC(c1ccc(Cl)cc1)N2)c1ccco1` (stereo not given), the activity change was inconclusive: -34.8%. For `Cc1ccc(C2=NN=C(NC(=O)CSc3nncn3C)SC2)cc1`, the activity change was inconclusive: -39.1%. For `CCCCc1ccc(S(=O)(=O)N2CCN(C(=O)c3ccco3)CC2)cc1`, the activity change was inconclusive: -36.9%. With `Cc1ccccc1Cn1cc(/C=N/n2cnnc2)c2ccccc21` the activity change was inconclusive: -32.9%. For `CCOc1ccc(S(=O)(=O)c2c(C(=O)c3ccc(C)cc3)cnc3cc4c(cc23)OCCO4)cc1`, the activity change was inconclusive: -39.1%.
